Experimental data reported in the supplement of paper PMC4604168 (melanoma cell lines).
The other results are listed elsewhere or left out. Many values rest on one well or one pass, so single values are uncertain.

Key:
Test in all cases: cell count relative to DMSO control; melanoma cells; higher = more viable cells
Details in all cases: library dose: standard library concentration; 72 h
A101D = test system: A101D
A2058 = test system: A2058
A375 = test system: A375
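Also: cells treated in 1,536-well plates, then fixed and DAPI-stained, with nuclei counted from automated high-throughput microscope images.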

Compound	cell count (A101D)	cell count (A2058)	cell count (A375)
Cc1cc(Nc2cc(N3CCN(C)CC3)nc(/C=C/c3ccccc3)n2)n[nH]1 + Nc1ncn([C@H]2C[C@H](O)[C@@H](CO)O2)c(=O)n1 [decitabine] (first compound 0.2 µM, partner dose 0.5 µM)	72.4%	60.4%	97.4%
Cn1c(=O)n(-c2ccc(C(C)(C)C#N)cc2)c2c3cc(-c4cnc5ccccc5c4)ccc3ncc21 + COCC[n+]1c2c(n(Cc3cnccn3)c1C)C(=O)c1ccccc1C2=O [YM155] (first compound 0.02 µM, partner dose 0.002 µM)	64.5%	25.7%	57.4%
COc1ccc(C2=N[C@@H](c3ccc(Cl)cc3)[C@@H](c3ccc(Cl)cc3)N2C(=O)N2CCNC(=O)C2)c(OC(C)C)c1 [Nutlin-3] + Cn1c(=O)n(-c2ccc(C(C)(C)C#N)cc2)c2c3cc(-c4cnc5ccccc5c4)ccc3ncc21 [NVP-BEZ235] (first compound 0.5 µM, partner dose 0.02 µM)	62.6%	62.5%	78%
Cc1cc(Nc2cc(N3CCN(C)CC3)nc(/C=C/c3ccccc3)n2)n[nH]1 + CN1CCN(c2ccc3nc(-c4c(N)c5c(F)cccc5[nH]c4=O)[nH]c3c2)CC1 [Dovitinib] (first compound 0.2 µM, partner dose 0.5 µM)	73%	37.7%	74.1%
CC(C)C[C@H](NC(=O)[C@H](Cc1ccccc1)NC(=O)c1cnccn1)B(O)O [Bortezomib] + Cc1cc(N2CCOCC2)cc2[nH]c(-c3c(NC[C@@H](O)c4cccc(Cl)c4)cc[nH]c3=O)nc12 [BMS536924] (first compound 0.005 µM, partner dose 1 µM)	5.28%	15%	95.3%
Cn1c(=O)n(-c2ccc(C(C)(C)C#N)cc2)c2c3cc(-c4cnc5ccccc5c4)ccc3ncc21 + OCc1c[nH]c2ccccc12 [Indole-3-carbinol] (first compound 0.02 µM, partner dose 4 µM)	77.4%	73.7%	111%
Cc1cc(Nc2cc(N3CCN(C)CC3)nc(/C=C/c3ccccc3)n2)n[nH]1 + CN(C)S(=O)(=O)c1ccc2c(c1)/C(=C/c1cc3c([nH]1)CCCC3)C(=O)N2 [SU6656] (first compound 0.2 µM, partner dose 2 µM)	47.2%	73.7%	88.9%
COc1ccc(C2=N[C@@H](c3ccc(Cl)cc3)[C@@H](c3ccc(Cl)cc3)N2C(=O)N2CCNC(=O)C2)c(OC(C)C)c1 [Nutlin-3] + Nc1nc(F)nc2c1ncn2[C@@H]1O[C@H](CO)[C@@H](O)[C@@H]1O [fludarabine] (first compound 0.5 µM, partner dose 1 µM)	80.5%	102%	38.9%
CC(C)C[C@H](NC(=O)[C@H](Cc1ccccc1)NC(=O)c1cnccn1)B(O)O [Bortezomib] + C=C(c1ccc(C(=O)O)cc1)c1cc2c(cc1C)C(C)(C)CCC2(C)C [Bexarotene] (first compound 0.005 µM, partner dose 10 µM)	10.8%	11%	77.8%
Cc1cc(Nc2cc(N3CCN(C)CC3)nc(/C=C/c3ccccc3)n2)n[nH]1 + CO[C@H]1C[C@@H]2CC[C@@H](C)[C@@](O)(O2)C(=O)C(=O)N2CCCC[C@H]2C(=O)O[C@H]([C@H](C)C[C@@H]2CC[C@@H](OCCO)[C@H](OC)C2)CC(=O)[C@H](C)/C=C(\C)[C@@H](O)[C@@H](OC)C(=O)[C@H](C)C[C@H](C)/C=C/C=C/C=C/1C [everolimus] (first compound 0.2 µM, partner dose 0.1 µM)	70.5%	45.5%	84.1%
CC(C)C[C@H](NC(=O)[C@H](Cc1ccccc1)NC(=O)c1cnccn1)B(O)O [Bortezomib] + Nc1nc(F)nc2c1ncn2[C@@H]1O[C@H](CO)[C@@H](O)[C@@H]1O [fludarabine] (first compound 0.005 µM, partner dose 1 µM)	24%	11.7%	39.3%
CC(C)C[C@H](NC(=O)[C@H](Cc1ccccc1)NC(=O)c1cnccn1)B(O)O [Bortezomib] + CC(C)(C)c1cnc(CSc2cnc(NC(=O)C3CCNCC3)s2)o1 [SNS-032] (first compound 0.005 µM, partner dose 0.05 µM)	6.65%	19.6%	79.4%
COc1ccc(C2=N[C@@H](c3ccc(Cl)cc3)[C@@H](c3ccc(Cl)cc3)N2C(=O)N2CCNC(=O)C2)c(OC(C)C)c1 [Nutlin-3] + CC(=O)c1c(C)c2cnc(Nc3ccc(N4CCNCC4)cn3)nc2n(C2CCCC2)c1=O [palbociclib] (first compound 0.5 µM, partner dose 0.2 µM)	54.6%	96.4%	60.2%
Cc1cc(Nc2cc(N3CCN(C)CC3)nc(/C=C/c3ccccc3)n2)n[nH]1 + C#Cc1cccc(Nc2ncnc3cc(OCCOC)c(OCCOC)cc23)c1 [erlotinib] (first compound 0.2 µM, partner dose 4 µM)	53.6%	55.3%	82.4%
COc1ccc(C2=N[C@@H](c3ccc(Cl)cc3)[C@@H](c3ccc(Cl)cc3)N2C(=O)N2CCNC(=O)C2)c(OC(C)C)c1 [Nutlin-3] + NC(=O)Nc1cc(-c2cccc(F)c2)sc1C(=O)N[C@H]1CCCNC1 [AZD7762] (first compound 0.5 µM, partner dose 0.1 µM)	50.4%	65.5%	42%
Cc1cn(-c2cc(NC(=O)c3ccc(C)c(Nc4nccc(-c5cccnc5)n4)c3)cc(C(F)(F)F)c2)cn1 [nilotinib] + Cn1nnc2c(C(N)=O)ncn2c1=O [temozolomide] (first compound 1 µM, partner dose 10 µM)	82.4%	43.4%	113%
Cc1cn(-c2cc(NC(=O)c3ccc(C)c(Nc4nccc(-c5cccnc5)n4)c3)cc(C(F)(F)F)c2)cn1 [nilotinib] + Cc1cc(Nc2cc(N3CCN(C)CC3)nc(/C=C/c3ccccc3)n2)n[nH]1 [ENMD2076] (first compound 1 µM, partner dose 0.2 µM)	87.9%	114%	95%
Cc1cn(-c2cc(NC(=O)c3ccc(C)c(Nc4nccc(-c5cccnc5)n4)c3)cc(C(F)(F)F)c2)cn1 [nilotinib] + Cn1c(Nc2ccc(C(F)(F)F)cc2)nc2cc(Oc3ccnc(-c4ncc(C(F)(F)F)[nH]4)c3)ccc21 [CHIR265] (first compound 1 µM, partner dose 0.4 µM)	55.4%	61.9%	104%
COc1ccc(C2=N[C@@H](c3ccc(Cl)cc3)[C@@H](c3ccc(Cl)cc3)N2C(=O)N2CCNC(=O)C2)c(OC(C)C)c1 [Nutlin-3] + CN(C)S(=O)(=O)c1ccc2c(c1)/C(=C/c1cc3c([nH]1)CCCC3)C(=O)N2 [SU6656] (first compound 0.5 µM, partner dose 2 µM)	71%	111%	122%
Cc1cc(Nc2cc(N3CCN(C)CC3)nc(/C=C/c3ccccc3)n2)n[nH]1 + Cn1c(Nc2ccc(C(F)(F)F)cc2)nc2cc(Oc3ccnc(-c4ncc(C(F)(F)F)[nH]4)c3)ccc21 [CHIR265] (first compound 0.2 µM, partner dose 0.4 µM)	64.7%	69.4%	78.8%
Cc1cc(Nc2cc(N3CCN(C)CC3)nc(/C=C/c3ccccc3)n2)n[nH]1 + C=C(c1ccc(C(=O)O)cc1)c1cc2c(cc1C)C(C)(C)CCC2(C)C [Bexarotene] (first compound 0.2 µM, partner dose 10 µM)	106%	120%	93.4%
Cc1cn(-c2cc(NC(=O)c3ccc(C)c(Nc4nccc(-c5cccnc5)n4)c3)cc(C(F)(F)F)c2)cn1 [nilotinib] + CS(=O)(=O)CCNCc1ccc(-c2ccc3ncnc(Nc4ccc(OCc5cccc(F)c5)c(Cl)c4)c3c2)o1 [lapatinib] (first compound 1 µM, partner dose 4 µM)	63.9%	72.8%	128%
COc1ccc(C2=N[C@@H](c3ccc(Cl)cc3)[C@@H](c3ccc(Cl)cc3)N2C(=O)N2CCNC(=O)C2)c(OC(C)C)c1 [Nutlin-3] + Cn1nnc2c(C(N)=O)ncn2c1=O [temozolomide] (first compound 0.5 µM, partner dose 10 µM)	64%	30.8%	69.8%
CC(C)C[C@H](NC(=O)[C@H](Cc1ccccc1)NC(=O)c1cnccn1)B(O)O [Bortezomib] + Cn1c(Nc2ccc(C(F)(F)F)cc2)nc2cc(Oc3ccnc(-c4ncc(C(F)(F)F)[nH]4)c3)ccc21 [CHIR265] (first compound 0.005 µM, partner dose 0.4 µM)	15.5%	10.9%	77.9%
Cn1c(=O)n(-c2ccc(C(C)(C)C#N)cc2)c2c3cc(-c4cnc5ccccc5c4)ccc3ncc21 + CO[C@H]1C[C@@H]2CC[C@@H](C)[C@@](O)(O2)C(=O)C(=O)N2CCCC[C@H]2C(=O)O[C@H]([C@H](C)C[C@@H]2CC[C@@H](OCCO)[C@H](OC)C2)CC(=O)[C@H](C)/C=C(\C)[C@@H](O)[C@@H](OC)C(=O)[C@H](C)C[C@H](C)/C=C/C=C/C=C/1C [everolimus] (first compound 0.02 µM, partner dose 0.1 µM)	61.2%	33.3%	87.9%
Cc1cc(Nc2cc(N3CCN(C)CC3)nc(/C=C/c3ccccc3)n2)n[nH]1 + O=C(Nc1cccc(Cl)c1)Nc1ncc(CCNc2ncnc3ccsc23)s1 [SNS314] (first compound 0.2 µM, partner dose 0.004 µM)	68.5%	72.3%	89.1%
